From the supplement of paper PMC8007513 come the findings set out here.

Counter-ions that a name gives are not always drawn. ± gives the standard error. About 75 (6%) of roughly 1,300 compounds showed an effect of 50% or more. Some of the results follow.

The experiment relates to Trichoderma virens ATCC 9645. Nature of the experiment: growth yield (OD600) relative to untreated control; higher = less growth inhibition. The settings on record: compound concentration: 100 uM. In a few lines:
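Trichoderma virens ATCC 9645 spores, from potato dextrose agar plates grown for 7 days, were brought to 15,000 spores ml^−1 in potato dextrose broth and dispensed as 100 μl aliquots into 96-well plates. Each aliquot received library compounds at 100 μM final, with or without a biocide at 200 ng ml^−1, before growth at 30 °C and OD600 readings on a BioTek EL800 at 40 h and 72 h. Growth is expressed relative to the control containing neither agent and represents means of duplicate screens.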

As to `CC(C)OC(=O)C(C)(C)Oc1ccc(C(=O)c2ccc(Cl)cc2)cc1` [Fenofibrate], the growth yield came out at 86.6 ± 2.1% (40 h) and 91.9 ± 4.8% (72 h).

Regarding `NC(=O)c1cnccn1` [Pyrazinamide], the growth yield reads like this: (40 h) 102 ± 1.3%; (72 h) 103.5 ± 0.32%.

On to `O=C(CCNNC(=O)c1ccncc1)NCc1ccccc1` [Nialamide], for which the growth yield came to 111.7 ± 0.48% (40 h) and 105.8 ± 0.94% (72 h).

`N/C(=N\C(=O)c1nc(Cl)c(N)nc1N)NCc1ccccc1` [Benzamil hydrochloride]: the growth yield turned out to be 94.2 ± 3% (40 h) and 96.3 ± 4% (72 h).

As for `CSc1nc2cc(Cl)c(Oc3cccc(Cl)c3Cl)cc2[nH]1` [Triclabendazole], the growth yield (40 h) was 78.2 ± 6% and the growth yield (72 h) is 104 ± 5.3%.

In the case of `Cc1nc2ccccn2c(=O)c1CCN1CCC(C(=O)c2ccc(F)cc2)CC1` [Pirenperone], the growth yield is, setting by setting: (40 h) 106 ± 1.6%; (72 h) 104 ± 2.2%.

Turning to `COc1cccc2c1C(=O)c1c(O)c3c(c(O)c1C2=O)C[C@@](O)(C(=O)CO)C[C@@H]3O[C@H]1C[C@H](N)[C@@H](O)[C@H](C)O1` [Epirubicin hydrochloride], the growth yield by setting is: (40 h) 109 ± 14%; (72 h) 106 ± 13%.

Consider `CCCN(CCC)CCc1cccc2c1CC(=O)N2` [Ropinirole hydrochloride], for which the growth yield worked out at 99.43 ± 0.64% (40 h) and 103 ± 1.1% (72 h).

Take `CC(=O)O[C@H]1C(=O)[C@@]2(C)[C@H]([C@H](OC(=O)c3ccccc3)[C@]3(O)C[C@H](OC(=O)[C@H](O)[C@@H](NC(=O)c4ccccc4)c4ccccc4)C(C)=C1C3(C)C)[C@]1(OC(C)=O)CO[C@@H]1C[C@@H]2O` [Paclitaxel]: the growth yield turned out to be 104 ± 4.6% (40 h) and 103 ± 2.3% (72 h).

`O=C(O)c1ccccc1OP(=O)(O)O` [Fosfosal] yielded a growth yield (40 h) of 89 ± 1.9% and a growth yield (72 h) of 91.6 ± 2.6%.

`C/C=C(/C(=C/C)c1ccc(O)cc1)c1ccc(O)cc1` [Dienestrol]: the growth yield reads like this: (40 h) 91.2 ± 7.9%; (72 h) 82.5 ± 6.6%.

`Cc1ncc([N+](=O)[O-])n1CC(C)O` (centres undefined) [Secnidazole]: the growth yield is, setting by setting: (40 h) 99.9 ± 3.3%; (72 h) 98.2 ± 2.5%.

`COc1ccc2cc([C@H](C)C(=O)O)ccc2c1` [(S)-Naproxen]: the growth yield was 72.6 ± 0.79% (40 h) and 83.2 ± 2.8% (72 h).

In turn, `Nc1cc(N2CCCCC2)nc(N)[n+]1[O-]` [Minoxidil] yielded a growth yield (40 h) of 104 ± 3.2% and a growth yield (72 h) of 102 ± 1.3%.

As to `CC1(C)S[C@@H]2[C@H](NC(=O)[C@H](N)c3ccccc3)C(=O)N2[C@H]1C(=O)O` [Ampicillin trihydrate], the growth yield (40 h) was found to be 105 ± 3.5% and the growth yield (72 h) was found to be 108 ± 2.6%.

As for `O=c1n(CCCN2CCN(c3cccc(Cl)c3)CC2)nc2ccccn12` [Trazodone hydrochloride], the growth yield is, setting by setting: (40 h) 97.85 ± 0.95%; (72 h) 98.48 ± 0.1%.

Consider `CO[C@@H]1[C@@H](O[C@@H]2O[C@H](C)[C@@H](O[C@H]3C[C@@](C)(O)[C@@H](OC(=O)CC(C)C)[C@H](C)O3)[C@H](N(C)C)[C@H]2O)[C@@H](CC=O)C[C@@H](C)[C@@H](O)/C=C/C=C/C[C@@H](C)OC(=O)C[C@H]1OC(C)=O` [Josamycin], for which the growth yield (40 h) amounted to 106.4 ± 0.64% and the growth yield (72 h) is 100.58 ± 0.1%.

In the case of `CC(=O)CC(c1ccccc1)c1c(O)c2ccccc2oc1=O` (centres undefined) [Warfarin], the growth yield was determined as 90.9 ± 3.5% (40 h) and 89.1 ± 4% (72 h).

As for `CCN(CC)CC(=O)Nc1c(C)cccc1C` [Lidocaine hydrochloride], the growth yield by setting is: (40 h) 104 ± 2.7%; (72 h) 103 ± 3.2%.

Take `c1ccc2c(CC3=NCCN3)cccc2c1` [Naphazoline hydrochloride]: the growth yield (40 h) amounted to 101 ± 2.4% and the growth yield (72 h) was determined as 100%.

`CC(=O)OCC(=O)[C@@]12OC(C)(C)O[C@@H]1C[C@H]1[C@@H]3C[C@H](F)C4=CC(=O)C=C[C@]4(C)[C@@]3(F)[C@@H](O)C[C@@]12C` [Fluocinonide]: the growth yield by setting is: (40 h) 90.1 ± 2.1%; (72 h) 89.6 ± 1.1%.

`C=CC1=C(C(=O)O)N2C(=O)[C@@H](NC(=O)/C(=N\O)c3csc(N)n3)[C@H]2SC1` [Cefdinir] displayed a growth yield (40 h) of 97.5 ± 3.5% and a growth yield (72 h) of 95.2 ± 3.1%.

Consider `Cc1cn([C@H]2C=C[C@@H](CO)O2)c(=O)[nH]c1=O` [Stavudine], for which the growth yield came out at 103 ± 2.4% (40 h) and 98.8 ± 3.1% (72 h).

Consider `CC(=O)NS(=O)(=O)c1ccc(N)cc1` [Sulfacetamide sodic hydrate], for which the growth yield was determined as 102 ± 1.1% (40 h) and 100.6 ± 0.32% (72 h).

On to `COc1cccc2c1C(=O)c1c(O)c3c(c(O)c1C2=O)C[C@@](O)(C(C)=O)C[C@@H]3O[C@H]1C[C@H](N)[C@H](O)[C@H](C)O1` [Daunorubicin hydrochloride], for which the growth yield was found to be 118.8 ± 0.32% (40 h) and 116 ± 1.5% (72 h).

In the case of `Cc1c(NC(=O)c2cccnc2)c(=O)n(-c2ccccc2)n1C` [Nifenazone], the growth yield turned out to be 101 ± 1.6% (40 h) and 102 ± 1.4% (72 h).

Regarding `CS(=O)(=O)OCCCCOS(C)(=O)=O` [Busulfan], the growth yield by setting is: (40 h) 103.2 ± 0.64%; (72 h) 105 ± 2%.

Turning to `CC(C)NC[C@@H](O)COc1ccc(CC(N)=O)cc1` [(R)-(+)-Atenolol], the growth yield was found to be 102 ± 4% (40 h) and 97.8 ± 1.8% (72 h).

For `NS(=O)(=O)c1cc2c(cc1C(F)(F)F)NCNS2(=O)=O` [Hydroflumethiazide], the growth yield (40 h) worked out at 102 ± 2.4% and the growth yield (72 h) is 100 ± 3.1%.

As for `CC[C@@H]1C(=O)OC[C@@H]1Cc1cncn1C` [Pilocarpine nitrate], the growth yield is 98.2% (40 h) and 98.6% (72 h).

Molecule `NC[C@@H]1O[C@@H](O[C@H]2[C@H](O)[C@@H](O[C@H]3O[C@H](CO)[C@@H](O)[C@H](N)[C@H]3O)[C@H](N)C[C@@H]2N)[C@@H](O)[C@H](O)[C@H]1O` [Kanamycin A sulfate] registered a growth yield (40 h) of 100 ± 1.1% and a growth yield (72 h) of 102 ± 2.1%.

Regarding `COC(=O)C1=C(C#N)NC(C)=C(C(=O)OC(C)C)C1c1cccc([N+](=O)[O-])c1` (centres undefined) [Nilvadipine], the growth yield reads like this: (40 h) 109 ± 6.8%; (72 h) 103 ± 5.6%.

`CC1CC(OC(=O)c2ccccc2O)CC(C)(C)C1` (centres undefined) [Homosalate]: the growth yield is, setting by setting: (40 h) 109 ± 3.2%; (72 h) 105.8 ± 0.32%.

With `C[C@H](CCC(=O)O)[C@H]1CC[C@H]2[C@@H]3[C@@H](O)C[C@@H]4C[C@H](O)CC[C@]4(C)[C@H]3CC[C@]12C` [Urosiol], the growth yield stood at 102 ± 4.9% (40 h) and 94.4 ± 2.3% (72 h).

`C#C[C@]1(O)CC[C@H]2[C@@H]3CCC4=CCCC[C@@H]4[C@H]3CC[C@@]21C` [Lynestrenol]: the growth yield was found to be 84.7 ± 6.2% (40 h) and 87 ± 4.2% (72 h).

`O=C(CCCN1CCN(c2ccccn2)CC1)c1ccc(F)cc1` [Azaperone]: the growth yield by setting is: (40 h) 105 ± 7%; (72 h) 99.2 ± 4.6%.

In the case of `CN1CCC(=C2c3ccccc3Sc3ccccc32)CC1` [Pimethixene maleate], the growth yield turned out to be 85.77 ± 0.64% (40 h) and 95.2 ± 1.9% (72 h).

As to `Nc1c2ccccc2nc2ccccc12` [Aminacrine], the growth yield is 98.64 ± 0.48% (40 h) and 96.9 ± 2.9% (72 h).

With `N[C@@H](Cc1cc(I)c(Oc2ccc(O)c(I)c2)c(I)c1)C(=O)O` [Liothyronine], the growth yield is, setting by setting: (40 h) 91.3 ± 3.3%; (72 h) 97.3 ± 1.1%.

Turning to `CN1CCN(C(c2ccccc2)c2ccccc2)CC1` [Cyclizine hydrochloride], the growth yield turned out to be 106.9 ± 0.48% (40 h) and 103.6 ± 0.63% (72 h).

On to `OCCN(CCO)c1nc(N2CCCCC2)c2nc(N(CCO)CCO)nc(N3CCCCC3)c2n1` [Dipyridamole], for which the growth yield worked out at 65 ± 1.1% (40 h) and 63.87 ± 0.32% (72 h).

Turning to `O=C(O)c1ccccc1C(=O)Nc1ccc(S(=O)(=O)Nc2nccs2)cc1` [Phthalylsulfathiazole], the growth yield reads like this: (40 h) 102 ± 3.8%; (72 h) 99.6 ± 2.3%.
